The record followed here is the RNAGym collection of RNA variant scans (doi:10.7554/elife.90254).

To fix the notation:
B1: LINE1-full (parent)
chain: UACGUAGGUGGUUUUCCCCUGAUAGUGCUAAGGGGGCCUGGAAGUUUGGACUGGGCAGAGCUCAACACAGCGUGGCAAAGUGGCUGUGGCUAGACUGCCUCUCUGGAUUCCUCGUCACUCAGCAGGGCAUCUCUGAGAGAAAUGCC

Read counts are not given, so values of variants with three or more changes are uncertain.

In the data set the parent is B1. Nature of the data set: self-cleavage, relative activity (ratio to wild type); higher = more cleavage; in vitro, sequencing; the parent is a self-cleaving ribozyme.
A24U U104C A129U: the self-cleavage is 1.73.

U14A A64G U100C U134G: the self-cleavage amounted to 0.33. As for U1A U29A A50G C118U, the self-cleavage is 0.76. For U47A U85G A121G A124U, the self-cleavage was found to be 0.14.

Turning to G35U G40A G105A U132C, the self-cleavage was found to be 1.55. Then G35A U73C A124C, with 1.34; and C17U A42U U87C, with 0.05. Then U12C G53U G89A, with 0.05.

As to U14C U20C A107G, the self-cleavage turned out to be 0.18. Then A22G U52G U102A, with 0.97; and A42G U130C C145U, with 0.97. A6G U20A U47C U87A: the self-cleavage worked out at 0.27. On to A43G G60A G74A U119G G144C, for which the self-cleavage stood at 0.06. Then U5A U46G U62A U85A A129G, with 0; and U14C U26C U47G A64G A140G, with 0. In the case of A77G U91A G126A it was 1.34; in that of G89A A94G A121G U143C, 0.08. Then U9C G25C U52C A124G, with 1.57; and A94G U112C U132C, with 0.16.

On to A2G U115C A124G A142G, for which the self-cleavage was determined as 0.48. Then U9C A50G U109C, with 2.04.

A24U U45C A67U U115A: the self-cleavage was 0.21. As for C3G A138U A141G, the self-cleavage was found to be 0.73. Then U14C G72A A78G U112C U143C, with 1.04; and A64U A69G G86C U132A, with 0.01; and C37U U102A A136G A140G, with 1.14. In the case of U9C A57G U62C U87C G89A U112C it was 0; in that of C3U A22G A42G A57G U87A, 0.21; in that of G97U U108C U132G, 0.09.

As to U15C A31G U85A, the self-cleavage amounted to 0.11. With U9G U13C U143C, the self-cleavage is 0.

Take G53C U81A A136G: the self-cleavage is 2.44. As for U52A U112C A117U, the self-cleavage was found to be 1.43. As to U13A A67G G125U, the self-cleavage was 0.41.

Regarding A42G U52A U102C U130A U134C, the self-cleavage came out at 2.47. In the case of G54A C98U G135A A140G it was 0.36. Then A57U C63U C76U A79G, with 0.06; and U39A A64U G89A, with 0.03; and U46C A69G A78U U81C, with 1.84. For U62C U96A U108A, the self-cleavage worked out at 0.02. In the case of A65U U87G U143C it was 0. In the case of G35U U73A A121G it was 1.87.

Regarding U20C A124G A142G, the self-cleavage turned out to be 1. Then U23C U134C A141G, with 1.81. As for A24G U85C A138U A142G, the self-cleavage is 0.59. Then U45C U100A A136G, with 0.66; and A6G U12C U45A, with 1.41; and G10A U46A A50G A142G, with 0.65. For U29C A67U U143C, the self-cleavage is 0.5. In the case of A6U U13C U102C A129G it was 2.15; in that of U20C A43U A141G, 1.56. On to A42U U104C A136U, for which the self-cleavage was found to be 1.53. In the case of G58U A94G U109C it was 0.07. For the variant U87C A140U U143C, the self-cleavage amounted to 0.26. Regarding U12C U47A A136G A142G, the self-cleavage amounted to 0.43.

As for U13C C38A A94U A124G, the self-cleavage was 0.28.

Turning to A2G A22U U47C A136U G137A, the self-cleavage was 0.66. G33A A79G U143C: the self-cleavage was found to be 0.5. In the case of A92U U119C U143C it was 1.14; in that of U5C U29C A69G, 0. In the case of U45G A69G A94U it was 0.04; in that of U47A U87C U102A U130C, 0.23.

In the case of C37G A94U U132A, the self-cleavage stood at 0.11. In the case of U47C G53A C63U C76U U109A it was 0.59; in that of U13A C103U U104C, 1.28; in that of G21U A24G U100A U112C, 0.97. With U87C U112C U115C A141G, the self-cleavage was 0. In the case of A59U U96C A138G it was 0.25; in that of A65U C103U A117G, 0; in that of U20A A78G U130C, 1.35. Then U26C U29C A142G, with 1.53. As for U14A U39C U85A G105U, the self-cleavage was found to be 0.03. Turning to U1C U87C U100A U109A U115C A121U, the self-cleavage stood at 0.

As to G25A U104G A129U U134A, the self-cleavage worked out at 1.67. Then U47A U85A A121U, with 0.11. With U13C U20C U26C A43G, the self-cleavage turned out to be 0.66. Then G36A A79U A107G U108A U134A, with 0.76; and A107U A121G A141G, with 1.76; and U14C U46A A78U, with 2.05. With U104C A121G U134C, the self-cleavage is 1.31. In the case of U9G A31U G88A U96G U134C it was 0.09; in that of A50G C101A U102C, 1.19. Turning to A43U A57U U62C A94G A117C G126A, the self-cleavage came out at 0.11. As for G27A A78U A129U A140G, the self-cleavage amounted to 1.69. On to G88A A107G U119C, for which the self-cleavage worked out at 0.05. In the case of U23C U47G A64C U96C it was 0; in that of U14G A22G G122U U132G, 0.92. Take U39A U104G A129G: the self-cleavage stood at 1.76. As for U9G U14C U112C A140G, the self-cleavage turned out to be 0.

For the variant U20C A121U A136G, the self-cleavage was 1.22. Consider U5C G48A G135A, for which the self-cleavage turned out to be 0.73. Take C18U G60A A77G A124G: the self-cleavage worked out at 0.04. In the case of U45C U46A A59G G74A it was 0.03; in that of U39C A59G A138G, 0.13.

In the case of A2C G93A A138G, the self-cleavage amounted to 0. As for U81C A117U U134C, the self-cleavage was 1.29. In the case of A59U A64G A69U A129U it was 0.06. Regarding A65G A92G U130A, the self-cleavage amounted to 0. On to C110U U112A U119C C145U, for which the self-cleavage was 1.49. As to U13C A42G C66U A77G, the self-cleavage worked out at 0.12. Turning to A22G G35C U134C, the self-cleavage came to 2.06. Then U47C U102C U132A, with 2.92; and U5A G36U U102C A124C A140G, with 2.36; and C16U U20A A57G, with 1.5. Turning to U14C A65G A141G, the self-cleavage stood at 0.14. In the case of C19U U39A A79G it was 1.11.

With A64U U109A U115C, the self-cleavage was 0.21. In the case of A24G G48C U73A it was 0.45; in that of G11U U13A A142G, 1.15. Then A78G G83C A94G, with 0.27; and U1C G10A A43U U96C A121G, with 0; and U14C U29A A30G A79U, with 0.66. In the case of U5C A57G U87A it was 0.14; in that of U23C A31U G80C G89U, 0.04; in that of U20C A50G C51A A78G U87C A140G, 0.08. As for G53U U62C A67G, the self-cleavage came out at 0.12. For the variant G41U U52A A65G A136G, the self-cleavage worked out at 0.05.

A78G U96A A124C: the self-cleavage worked out at 0.07. Then A57U U73C A121G, with 0.26; and G40U U81C U143A, with 1.69. Consider A42G U46A G89U, for which the self-cleavage was 0.02.

With U12G G32A U109A, the self-cleavage amounted to 0.88. In the case of A64G C76U U130C it was 0.28; in that of U9C U15A U134C, 0.66; in that of U5C G55C U62C A136G, 0.14. Then A31G A92G A138G, with 0.09; and A124U U130C U143A, with 0.48. As to A30G A65U A77C U134A, the self-cleavage was determined as 0.22. In the case of U45C G74A U85A U130A A141G it was 0.02; in that of U5A A22G G144A, 1.03; in that of G44A A57G U132A, 1.73.

As to U26C A94G U109A A142U, the self-cleavage is 0.3. Then U9C A59G U87C, with 0; and U14C U47A U143C, with 0.94; and G74A U100C A121U, with 1.39. Then A2G C68U A94U A117G U119C A124G A140G, with 0.5.

C16A A22G A141G: the self-cleavage is 1.02.

For the variant A77G U87C C145U, the self-cleavage is 0.44.

For U14C U47G A77U, the self-cleavage worked out at 1.23.

Regarding C37A A78G U96C A141U, the self-cleavage worked out at 0. Then U52C A65C C113A, with 0; and U39C U81A U87A U104C, with 0.44.

As for U9C U20C U112A U115G A129U, the self-cleavage came to 1.97. Then U52C U119C A136U, with 2.04; and U5C U102C U134A, with 1.23; and U45A C63A U81A, with 0.05. Then G41U A59G A117G A140G, with 0.1; and U29C U39C U102C A138G, with 2.3; and U20C U26A A50G U109A A129G, with 1.04. In the case of U12G A43G U87A C145U it was 0.13.

Regarding U1C G44A U85A U91C, the self-cleavage was determined as 0.19. Then A31G U73G C146A, with 1.16; and U5G U9A U100C, with 0.4. In the case of A59G G60A U73A U91C it was 0.01; in that of U26C A57G U87G G89A, 0; in that of U13A U14A U109A, 0.6. Then U15C U52A A94G G97A A141G, with 0.13.

In the case of U81A U102A A142G, the self-cleavage stood at 1.74. Then G10A G35U U96C, with 0. In the case of U9C G35A U87C A94U A124U it was 0.06; in that of A24G A30U U132C A140G, 1.42. Then A59G A79G U85A C95U U96C, with 0; and U9A A77G U81G U100C, with 0. On to A59G A78G G106A U119A, for which the self-cleavage came to 0.04. U52A U100A A124U: the self-cleavage came to 0.99.

Turning to U29A U100C A140G, the self-cleavage was 2.02. On to C37U U73C U85C, for which the self-cleavage is 0.06.
